# Assay results taken from US20220125947A1.
# Molecular target: T cell receptor (TCR) Vγ9 (TRGV9) on Vγ9+ T cells in PBMCs (human), Q99603
# Assay: cell-based or functional assay
# T cell receptor (TCR) Vγ9 (TRGV9) on Vγ9+ T cells in PBMCs (human), Q99603, sequence (Q99603 21-122): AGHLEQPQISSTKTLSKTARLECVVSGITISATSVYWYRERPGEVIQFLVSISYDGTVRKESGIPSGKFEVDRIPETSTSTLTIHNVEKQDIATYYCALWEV
Binder,"CD25+ (Vg9+ cells), flow staining [%]","CD71+ (Vg9+ cells), flow staining [%]","Granzyme B (Luminex, supernatant)","IFNγ (Luminex, supernatant)","IL6 (Luminex, supernatant)","TNFα (Luminex, supernatant)","Vg9 T cell %, flow staining [%]"
"VG9B417 (antibody, human IgG1, kappa) heavy: EVQLVESGGGLVKPGGSLRLSCAASGFTFSNYGMNWVRQAPGKGLEWVSYISSGSSYKYYADSMKGRFTISRDNAMNLLYLQMNSLRPEDSAMYYCARDPVVTEYYYYGMDVWGQGTTVTVSS[human IgG1 constant region omitted here] light: DIVMTQSPSSVSASVGDRVTITCRASQGINSWLAWYQQKPGNAPKLLIYAASSLQSGVPSRFSGIGSGTDFIFTISSLQPEDFASYYCQQANSFPWTFGQGTKVEIKRTVAAPSVFIFPPSDEQLKSGTASVVCLLNNFYPREAKVQWKVDNALQSGNSQESVTEQDSKDSTYSLSSTLTLSKADYEKHKVYACEVTHQGLSSPVTKSFNRGEC",49.6,98.8,5570,2870,1410,202,10.9
"VG9B58 (antibody, human IgG1, kappa) heavy: QVQLQESGPGLVKPSETLSLTCTVSGGSIKSSYWTWIRQPPGKGLEWIGYMFYLGSTNYNPSLKSRVTMSIDTSRNQFSLKLSSVTAADTAVYYCSRERPVLDAFDIWGQGTMVTVSS[human IgG1 constant region omitted here] light: DIQMTQSPSAMSASVGDRVTITCRASQDITNYLAWFQQKPGKVPKRLIYAASSLQGGVPSRFSGSGSGTEFTLTISSLQPEDFSTYYCLQHDTYPYTFGQGTKVDIKRTVAAPSVFIFPPSDEQLKSGTASVVCLLNNFYPREAKVQWKVDNALQSGNSQESVTEQDSKDSTYSLSSTLTLSKADYEKHKVYACEVTHQGLSSPVTKSFNRGEC",33.9,91.8,3840,1600,572,3450,6.8
"VG9B419 (antibody, human IgG1, kappa) heavy: EVQLVESGGGLVKPGGSLRLSCSASGFTFSNYDMNWVRQAPGKGLEWVSSISSSSSYIYYADSVKGRFTISRDNAKNSLYLQMNSLRAEDTAVYHCARDVGVTTDYYYYGMDVWGQGTTVTVSS[human IgG1 constant region omitted here] light: EIVLTQSPGTLSLSPGDRATLSCRASQSVASSYLAWYQQKPGQSPRLLIYGASSRATGIPDRFSGSGSGTDFTLTISRLEPEDFAVYYCQQYGSSPPYTFGQGTKVEIKRTVAAPSVFIFPPSDEQLKSGTASVVCLLNNFYPREAKVQWKVDNALQSGNSQESVTEQDSKDSTYSLSSTLTLSKADYEKHKVYACEVTHQGLSSPVTKSFNRGEC",34.2,98.1,4250,2430,362,216,5
"VG9B143 (antibody, human IgG1, lambda) heavy: EVQLVESGGGLVQPGGSLRLSCAASGFTFSTYGMNWVRQAPGKGLEWISYISTSSYTIYYSDSVKGRFTVSRDNAKNSLYLQMNSLRDEDTAVYYCAREGDWWYFDLWGRGTTVTVSS[human IgG1 constant region omitted here] light: QSALTQPASVSGSPGQSITISCTGTSSDVGGYNYVSWYQQHPGKAPKLMIYEVSNRPSGVSYRFSGSKSGNTASLTISGLQAEDEADYYCSSYTSSSTLVFGGGTKLTVLGQPKAAPSVTLFPPSSEELQANKATLVCLISDFYPGAVTVAWKADSSPVKAGVETTTPSKQSNNKYAASSYLSLTPEQWKSHRSYSCQVTHEGSTVEKTVAPTECS",11.4,87.5,1090,155,113,32,6.2
"VG9B418 (antibody, human IgG1, kappa) heavy: EVQLVQSGGGLVKPGGSLRLSCSASGFTFSNYDMNWVRQAPGKGLEWVSSISSSSSYIYYADSVKGRFTISRDNAKNSLYLQMNSLRAEDTAVYHCARDVGVTTDYYYYGMDVWGQGTMVTVSS[human IgG1 constant region omitted here] light: EIVLTQSPGTLSLSPGDRATLSCRASQSVASSYLAWYQQKPGQSPRLLIYGASSRATGIPDRFSGSGSGTDFTLTISRLEPEDFAVYYCQQYGSSPPYTFGQGTKLEIKRTVAAPSVFIFPPSDEQLKSGTASVVCLLNNFYPREAKVQWKVDNALQSGNSQESVTEQDSKDSTYSLSSTLTLSKADYEKHKVYACEVTHQGLSSPVTKSFNRGEC",46.9,99.2,3890,2180,279,163,13.3
"VG9B472 (antibody, human IgG1, kappa) heavy: QVQLVESGGGLVKPGGSLRLSCAASGFTFSHYDMNWVRQAPGKGLEWVSSISSSSSYIFYADSVKGRFTISRDNAKNSLLLQMNSLRAEDTAVYHCARDRGVGDTSDYYSFGLDVWGQGTTVTVSS[human IgG1 constant region omitted here] light: EIVLTQSPSSLSASVGDRVTITCRASQGIATYLAWYQQKPGKVPNLLIYAASTLQSGVPSRFSGSGSGTDFTLTISSLQPEDVATYYCQKYNSAPPWTFGQGTKVEIKRTVAAPSVFIFPPSDEQLKSGTASVVCLLNNFYPREAKVQWKVDNALQSGNSQESVTEQDSKDSTYSLSSTLTLSKADYEKHKVYACEVTHQGLSSPVTKSFNRGEC",23.4,96.6,2780,575,394,84,6.3

# Molecular target: TCR Vδ2 (TRDV2) on T cells in PBMCs (human), A0JD36
# Sequence (A0JD36 20-115, stated change not applied): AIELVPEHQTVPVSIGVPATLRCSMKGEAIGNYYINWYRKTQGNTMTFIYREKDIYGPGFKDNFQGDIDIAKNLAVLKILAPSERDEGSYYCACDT
# Assay: cell-based or functional assay
Binder,Flow Staining: CD25+ (Vg9+ cells) [%],Flow Staining: CD71+ (Vg9+ cells) [%],Flow Staining: Vg9 T cell % [%],Luninex (supernatant): Granzyme B,Luninex (supernatant): IFNγ,Luninex (supernatant): IL6,Luninex (supernatant): TNFα
"VG9B459 (antibody, human IgG1, lambda) heavy: QVQLQESGPGLVKPSETLSLTCTVSGGSISNYYWSWIRQPAGKGLGWIGRIYSSGITNYNPSLKSRVTMSVDTSKNQLSLKLSSVTAADTAVYYCAGIVGVKGAFAIWGQGTMVTVSS[human IgG1 constant region omitted here] light: QPVLTQPASVSGSPGQSITISCTGTSSDVGGYNYVSWYQQHPGKAPKLMIYEVSNRPSGVSNRFSGSKSGNTASLTISGLQAEDEADYYCSSYTSTSVVFGGGTKLTVLGQPKAAPSVTLFPPSSEELQANKATLVCLISDFYPGAVTVAWKADSSPVKAGVETTTPSKQSNNKYAASSYLSLTPEQWKSHRSYSCQVTHEGSTVEKTVAPTECS",24.2,86.6,2.9,2320,1060,409,1590
"VG9B157 (antibody, human IgG1, lambda) heavy: EVQLLESGGGLVKPGASLKLSCAASGFTFSNHGMSWVRQTSDKRLEWVASITRGGDTTYYPDNVKGRFTISRENAKNTLYLQMSSLKSDDTALYYCTRGPLTVGYAMDYWGQGTTVTVSS[human IgG1 constant region omitted here] light: SSELTQDPAVSVALGQTVRITCQGDSLRSYYATWYQQKPGQAPILVIYGENNRPSGIPDRFSGSRSGNTASLTITGAQAEDEADYYCNSRDTGDHHLVFGGGTKLTVLGQPKAAPSVTLFPPSSEELQANKATLVCLISDFYPGAVTVAWKADSSPVKAGVETTTPSKQSNNKYAASSYLSLTPEQWKSHRSYSCQVTHEGSTVEKTVAPTECS",13.1,78.3,3.3,115,36,606,74
"VG9B453 (antibody, human IgG1, lambda) heavy: QVQLQQSGPGLVKPSETLSLTCTVSGGSISNYYWSWIRQPAGKGLGWIGRIYSSGITNYNPSLKSRVTMSVDTSKNQLSLKLSSVTAADTAVYYCAGIVGVKGAFAIWGQGTMVTVSS[human IgG1 constant region omitted here] light: QSALTQPASVSGSPGQSITISCTGTSSDVGGYNYVSWYQQHPGKAPKLMIYEVSNRPSGVSNRFSGSKSGNTASLTISGLQAEDEADYYCSSYTSTSVVFGGGTKVTVLGQPKAAPSVTLFPPSSEELQANKATLVCLISDFYPGAVTVAWKADSSPVKAGVETTTPSKQSNNKYAASSYLSLTPEQWKSHRSYSCQVTHEGSTVEKTVAPTECS",29.7,87.9,3,3300,1670,612,5760
"VG9B443 (antibody, human IgG1, lambda) heavy: QVQLQESGPGLVKPSETLSLTCTVSGGSISNYYWSWIRQPAGKGLGWIGRIYSSGITNYNPSLKSRVTMSVDTSKNQLSLKLSSVTAADTAVYYCAGIVGVKGAFAIWGQGTMVTVSS[human IgG1 constant region omitted here] light: QSALTQPASVSGSPGQSITISCTGTSSDVGGYNYVSWYQQHPGKAPKLMIYEVSNRPSGVSNRFSGSKSGNTASLTISGLQAEDEADYYCSSYTSTSVVFGGGTKLTVLGQPKAAPSVTLFPPSSEELQANKATLVCLISDFYPGAVTVAWKADSSPVKAGVETTTPSKQSNNKYAASSYLSLTPEQWKSHRSYSCQVTHEGSTVEKTVAPTECS",33.6,86,3.8,2550,1170,860,5110
"VG9B455 (antibody, human IgG1, lambda) heavy: QVQLVESGPGLVKPSETLSLTCTVSGGSISNYYWSWIRQPAGKGLGWIGRIYSSGITNYNPSLKSRVTMSVDTSKNQLSLKLSSVTAADTAVYYCAGIVGVKGAFAIWGQGTMVTVSS[human IgG1 constant region omitted here] light: SYELTQPASVSGSPGQSITISCTGTSSDVGGYNYVSWYQQHPGKAPKLMIYEVSNRPSGVSNRFSGSKSGNTASLTISGLQAEDEADYYCSSYTSTSVVFGGGTKLTVLGQPKAAPSVTLFPPSSEELQANKATLVCLISDFYPGAVTVAWKADSSPVKAGVETTTPSKQSNNKYAASSYLSLTPEQWKSHRSYSCQVTHEGSTVEKTVAPTECS",24.2,77.3,2.6,9280,2730,1580,7050
